Assay results from the supplement of paper PMC7826260.
Some of the results follow. Each Rep nickase domain was tested in vitro on the same pool of single strands (1 h at 37 °C, 3 µM enzyme); the outer parts of the 90-letter strands are left off. Values are log2 of uncut reads against the no-enzyme pool; strong cutting gives strongly negative numbers. There is no active / inactive call. Because reads are shares of a total, they shift together; values above 0 arise when much of the pool is cut.

What was measured:
Test in all cases: uncleaved DNA left, log2 of reads against the no-enzyme library (log2 ratio); higher = less cleavage (more negative = more Rep cleavage of the k-mer); sequences stand for … in CTCGTCCG…ACCGGAGA
[1] = system: T1, Rep nickase domain of Muscovy duck circovirus
T1 sequence (protein, residues 1-111, tag omitted): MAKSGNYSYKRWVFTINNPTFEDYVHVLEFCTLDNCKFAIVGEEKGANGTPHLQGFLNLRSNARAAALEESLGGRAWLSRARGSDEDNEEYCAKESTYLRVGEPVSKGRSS
Protocol: (§1)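 A pool of 90-nt single-stranded DNAs with seven random bases just before the constant AC of the nick site (name = the seven bases) was cut by 3 µM recombinant His6-SUMO-tagged Rep nickase domain (300 nM DNA, 50 mM HEPES pH 8.0, 50 mM NaCl, 1 mM MnCl2, 1 h, 37 °C, three replicates). Uncut DNA was amplified and sequenced.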

[2] = system: T2, Rep nickase domain of banana bunchy top virus
T2 sequence (protein, residues 1-94, tag omitted): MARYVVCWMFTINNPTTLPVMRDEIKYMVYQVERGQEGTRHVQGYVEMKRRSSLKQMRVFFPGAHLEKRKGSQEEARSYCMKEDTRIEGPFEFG
Protocol: as §1

[3] = system: T3, Rep nickase domain of cabbage leaf curl virus
T3 sequence (protein, residues 1-116, tag omitted): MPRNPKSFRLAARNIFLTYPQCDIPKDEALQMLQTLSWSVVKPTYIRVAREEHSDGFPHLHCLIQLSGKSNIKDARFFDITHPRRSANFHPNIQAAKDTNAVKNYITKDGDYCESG
Protocol: as §1

[4] = system: T4, Rep nickase domain of chickpea chlorotic dwarf virus
T4 sequence (protein, residues 1-124, tag omitted): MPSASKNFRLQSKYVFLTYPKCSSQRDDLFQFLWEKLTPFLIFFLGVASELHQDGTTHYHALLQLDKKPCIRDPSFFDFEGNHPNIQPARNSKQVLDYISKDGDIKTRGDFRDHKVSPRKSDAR
Protocol: as §1

[5] = system: T5, Rep nickase domain of faba bean necrotic yellows virus
T5 sequence (protein, residues 1-98, tag omitted): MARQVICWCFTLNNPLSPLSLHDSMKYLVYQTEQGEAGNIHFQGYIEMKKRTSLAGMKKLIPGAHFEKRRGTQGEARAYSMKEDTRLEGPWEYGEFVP
Protocol: as §1

[6] = system: T6, Rep nickase domain of maize striate mosaic virus
T6 sequence (protein, residues 1-117, tag omitted): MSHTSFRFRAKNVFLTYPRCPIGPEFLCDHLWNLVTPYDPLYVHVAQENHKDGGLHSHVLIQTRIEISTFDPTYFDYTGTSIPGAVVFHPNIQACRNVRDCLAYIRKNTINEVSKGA
Protocol: as §1

[7] = system: T7, Rep nickase domain of porcine circovirus 2
T7 sequence (protein, residues 2-116, tag omitted): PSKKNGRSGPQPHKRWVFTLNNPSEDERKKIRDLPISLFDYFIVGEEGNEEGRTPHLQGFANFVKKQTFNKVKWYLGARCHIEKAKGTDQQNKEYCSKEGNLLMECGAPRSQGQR
Protocol: as §1

[8] = system: T8, Rep nickase domain of tomato golden mosaic virus
T8 sequence (protein, residues 1-124, tag omitted): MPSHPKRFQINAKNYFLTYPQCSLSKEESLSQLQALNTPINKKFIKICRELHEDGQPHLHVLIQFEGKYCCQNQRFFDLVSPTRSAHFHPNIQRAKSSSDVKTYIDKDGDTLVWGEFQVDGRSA
Protocol: as §1

[9] = system: T9, Rep nickase domain of tomato yellow leaf curl virus
T9 sequence (protein, residues 1-136, tag omitted): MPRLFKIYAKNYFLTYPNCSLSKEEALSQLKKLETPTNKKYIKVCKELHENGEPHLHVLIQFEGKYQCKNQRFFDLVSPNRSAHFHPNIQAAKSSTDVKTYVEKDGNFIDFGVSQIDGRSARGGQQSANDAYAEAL
Protocol: as §1

[10] = system: T10, Rep nickase domain of wheat dwarf virus
T10 sequence (protein, residues 1-137, tag omitted): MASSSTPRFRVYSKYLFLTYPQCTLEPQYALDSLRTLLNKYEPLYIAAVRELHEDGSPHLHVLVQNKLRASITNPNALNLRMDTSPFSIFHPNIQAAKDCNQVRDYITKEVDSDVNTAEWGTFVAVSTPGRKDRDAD
Protocol: as §1

Sequence	uncleaved DNA left (log2) [1]	uncleaved DNA left (log2) [2]	uncleaved DNA left (log2) [3]	uncleaved DNA left (log2) [4]	uncleaved DNA left (log2) [5]	uncleaved DNA left (log2) [6]	uncleaved DNA left (log2) [7]	uncleaved DNA left (log2) [8]	uncleaved DNA left (log2) [9]	uncleaved DNA left (log2) [10]
TTTACGA	-0.0254	0.00756	0.155	-0.312	0.0672	0.028	0.0512	0.0203	0.00464	-0.0467
TGTGGGA	0.0642	-0.0523	0.331	0.507	0.0381	0.261	0.202	0.0489	0.0332	0.0106
ACCAATA	-0.0421	0.0215	-0.248	-1.37	0.00458	-1.07	0.00795	0.0974	-0.0994	-0.0386
GTCTGTG	0.0877	0.0506	0.214	0.444	0.134	0.748	0.196	0.137	0.111	0.0806
GGAGCTT	-0.0218	-0.00159	0.701	1.58	-0.0236	2	0.075	-0.0643	-0.104	0.145
GCGATGG	-0.056	-0.118	-0.215	0.566	-0.041	1.22	0.0775	-0.0566	-0.032	-0.0275
CGAGACC	-0.0403	-0.164	0.427	0.924	-0.0226	0.448	-0.139	-0.0532	-0.146	-0.124
TCTTTGT	-0.192	-0.153	-0.194	-0.702	-0.0583	-1.11	-0.824	-0.202	-0.127	-0.0796
TGCCGAT	-0.121	-0.0384	-0.0219	0.136	-0.192	0.159	-0.0147	-0.178	-0.129	-0.0425
CTGTCGT	0.0204	-0.16	-0.596	-0.812	0.0668	-1.08	-0.336	-0.065	-0.0514	-0.0295
AAGTGGC	-0.00886	-0.0468	-0.426	-0.373	-0.0737	-0.927	-0.094	0.03	-0.0838	0.00856
GTGTTTT	-0.288	0.0834	0.384	0.749	-0.0599	1.81	-2.1	0.0309	0.0876	0.0836
TTTCTAC	-0.467	-0.0291	0.0676	-1.53	-0.0548	-0.0395	-0.227	0.0251	-0.0928	-0.042
CGAATAG	0.0561	0.112	-0.274	-0.0888	0.142	-0.625	0.129	-0.0301	0.0642	-0.0414
TTCGTGC	-0.0557	-0.063	-0.47	-0.554	0.0839	-0.949	0.0493	-0.192	-0.143	-0.172
CACTCAT	-0.186	-0.952	-0.115	-2.52	0.144	-0.703	-3.54	-0.00165	0.0465	0.0331
TCACGCG	-0.126	-0.0914	-0.756	0.654	-0.0778	-0.72	-0.0211	-0.154	-0.0728	-0.106
GATACCG	-0.0208	-0.0437	-0.397	-0.00339	-0.00971	-0.611	0.222	0.00813	-0.079	-0.0285
GAGACTG	0.0267	0.0896	0.187	0.81	0.0438	1.8	0.126	0.125	0.0862	0.104
TGAATTA	-0.04	-0.0114	0.079	-0.816	-0.00931	-0.1	-0.193	0.0271	0.0252	0.0796
GGAGTCT	0.109	0.00486	0.633	1.24	-0.0695	1.96	0.0207	0.07	0.152	0.149
CTAATCC	-0.0323	0.138	0.298	0.00393	-0.085	-0.445	0.0443	-0.00495	-0.0264	0.112
ATGTTAA	0.143	0.0535	-0.054	-0.299	0.0812	-0.421	-0.0359	0.186	0.0743	0.0528
CCTTGTT	-2.82	-0.709	-0.889	-2.64	-0.0753	-1.03	-2.94	-0.0496	-0.223	-0.548
ACCGCTA	-0.046	-0.0448	-0.44	-1.05	-0.127	-1.04	-0.161	-0.0117	-0.103	-0.0617
TGACTAT	0.0657	0.00897	0.365	0.489	0.0463	1.12	0.0597	-0.0303	0.024	0.153
AGAATTT	-0.0547	-0.0889	0.0854	-2.19	-0.0227	-0.363	-1.72	-0.0592	-0.112	-0.162
GTGGCAC	0.105	0.0932	0.348	0.836	-0.136	1.93	0.0501	0.191	0.0595	0.000969
TAACAAT	-0.144	0.0525	-3.29	-3.03	0.0929	-0.735	-0.311	-0.284	0.135	-1.49
